# Laboratory results published in the antibiotic and cytotoxicity screens of Wong et al. (2023).
# Some of the results follow.
# Tests used:
# HSkMC = human skeletal muscle cells; assay: cytotoxicity call (relative viability < 0.9); details: 10 µM
# HepG2 = assay: cytotoxicity call (relative viability < 0.9); details: 10 µM
# S. aureus RN4220 = assay: growth inhibition call (relative growth <= 0.2); details: 50 µM
Compound,cytotoxicity call (HSkMC),cytotoxicity call (HepG2),growth inhibition call (S. aureus RN4220)
C[C@H](CO)N1C[C@H](C)[C@@H](CN(C)S(=O)(=O)c2ccccc2)OCCCC[C@H](C)Oc2ccc(NC(=O)NC3CCCCC3)cc2C1=O,inactive,inactive,inactive
C[C@H]1CN([C@@H](C)CO)C(=O)c2cc(NS(=O)(=O)c3cn(C)cn3)ccc2O[C@@H]1CN(C)Cc1ccc(C(=O)Nc2ccccc2N)cc1,inactive,inactive,inactive
C[C@@H]1CN([C@H](C)CO)C(=O)c2cccc(NS(=O)(=O)c3cccs3)c2O[C@H]1CN(C)S(=O)(=O)c1ccc(F)cc1,inactive,inactive,inactive
NC(N)=O,inactive,inactive,inactive
C[C@@H]1CN([C@H](C)CO)C(=O)c2cc(NC(=O)Nc3ccc(F)cc3)ccc2O[C@@H](C)CCCCO[C@@H]1CN(C)S(=O)(=O)c1ccc(Cl)cc1,inactive,inactive,inactive
Cc1noc(C)c1NC(=O)N(C)C[C@H]1Oc2ccc(NS(=O)(=O)c3cn(C)cn3)cc2CC(=O)N([C@@H](C)CO)C[C@H]1C,inactive,inactive,inactive
NC(=O)c1ccco1,inactive,inactive,inactive
C[C@@H]1CN([C@H](C)CO)C(=O)c2cc(NS(=O)(=O)c3ccc(Cl)cc3)ccc2O[C@@H](C)CCCCO[C@@H]1CN(C)S(=O)(=O)c1ccc(Cl)cc1,inactive,inactive,inactive
C[C@H](CO)N1C[C@H](C)[C@@H](CN(C)Cc2ccc(Cl)c(Cl)c2)OCCCC[C@H](C)Oc2ccc(NC(=O)NC3CCCCC3)cc2C1=O,inactive,active,inactive
C[C@@H]1CN([C@H](C)CO)C(=O)c2cc(NS(=O)(=O)c3ccccc3)ccc2O[C@@H](C)CCCCO[C@H]1CN(C)C(=O)Nc1ccccc1,inactive,inactive,inactive
Cc1nn(C)cc1NC(=O)C[C@@H]1CC[C@@H]2[C@@H](COc3ccc(NC(=O)C4CCOCC4)cc3C(=O)N2C)O1,inactive,inactive,inactive
Cc1ccc(S(=O)(=O)Nc2ccc3c(c2)C(=O)N([C@H](C)CO)C[C@@H](C)[C@@H](CN(C)Cc2ccc(C(=O)O)cc2)OCCCC[C@@H](C)O3)cc1,inactive,inactive,inactive
COCC#Cc1ccc2c(c1)O[C@@H](CN(C)C(=O)c1ccccc1)[C@H](C)CN([C@@H](C)CO)S2(=O)=O,inactive,inactive,inactive
O=C(C[C@H]1CC[C@H]2[C@@H](COC[C@@H](O)CN2C(=O)c2ccncc2)O1)NCc1ccc(-c2ccccc2)cc1,inactive,inactive,inactive
C[C@H]1CN([C@@H](C)CO)C(=O)CCCn2nncc2CO[C@@H]1CN(C)C(=O)Nc1ccnc(N2CCOCC2)c1,inactive,inactive,inactive
CC(C)NC(=O)N(C)C[C@@H]1Oc2ccc(NC(=O)Nc3ccc4c(c3)OCO4)cc2C(=O)N([C@H](C)CO)C[C@H]1C,inactive,inactive,inactive
COCC#Cc1ccc([C@@H]2[C@@H](CO)N3C(=O)CN(C(=O)c4cccnc4)C[C@@H]23)cc1,inactive,inactive,inactive
Cc1noc(C)c1NC(=O)Nc1cccc2c1O[C@H](CN(C)C(=O)NC(C)C)[C@H](C)CN([C@H](C)CO)C2=O,inactive,inactive,inactive
Cn1cnc(CCNC(=O)C[C@@H]2CC[C@H]3[C@@H](COC[C@@H](O)CN3C(=O)Nc3ccc(Cl)cc3)O2)c1,inactive,inactive,inactive
Cc1cc(C(=O)Nc2cccc3c2O[C@@H](CN(C)Cc2ccc4c(c2)OCO4)[C@@H](C)CN([C@H](C)CO)C3=O)n(C)n1,inactive,inactive,inactive
C=CC(C)(O)CCC1C(=C)CC(OC(C)=O)C2C(C)(C)CCCC12C (configuration not stated),inactive,inactive,inactive
O=C(C[C@H]1CC[C@@H](NC(=O)CN2CCOCC2)[C@H](CO)O1)NC1CCC1,inactive,inactive,inactive
Cc1[nH]c(SCCC(=O)O)nc(=O)c1C,inactive,inactive,inactive
C[C@H](CO)N1C[C@H](C)[C@H](CN(C)Cc2ccncc2)OCCCC[C@H](C)Oc2ccc(NC(=O)NC3CCCCC3)cc2C1=O,inactive,inactive,inactive
COc1ccc(C#Cc2ccc3c(c2)[C@]2(C(=O)N3)[C@H](c3ccc(OCCO)cc3)N3[C@H](c4ccccc4)[C@H](c4ccccc4)OC(=O)[C@H]3[C@@H]2C(=O)NC[C@H](O)c2ccccc2)cc1,inactive,inactive,inactive
CO[C@H]1CN(C)C(=O)c2cc(NC(=O)C3CC3)ccc2OC[C@H](C)N(C(=O)Cc2ccccn2)C[C@H]1C,inactive,inactive,inactive
O=C(C[C@H]1C[C@@H]2c3cc(NC(=O)NC4CCCC4)ccc3O[C@@H]2[C@H](CO)O1)NCc1ccc(-c2ccccc2)cc1,inactive,active,inactive

Compound,cytotoxicity call (HSkMC),cytotoxicity call (HepG2),growth inhibition call (S. aureus RN4220)
C[C@@H]1CCCCO[C@H](CN(C)C(=O)Nc2ccc3c(c2)OCO3)[C@H](C)CN([C@@H](C)CO)C(=O)c2cc(NC(=O)Nc3ccccc3)ccc2O1,inactive,inactive,inactive
COCCNC(=O)C[C@H]1C[C@H]2c3cc(NC(=O)CN(C)C)ccc3O[C@H]2[C@@H](CO)O1,inactive,inactive,inactive
C[C@@H]1CCCCO[C@H](CN(C)C(=O)Nc2ccccc2)[C@H](C)CN([C@@H](C)CO)C(=O)c2cc(NC(=O)c3ccccc3)ccc2O1,inactive,inactive,inactive
C[C@H]1CN([C@@H](C)CO)C(=O)c2c(c3ccccc3n2C)-c2ccccc2CO[C@H]1CN(C)Cc1cccc(C(F)(F)F)c1,inactive,inactive,inactive
Cc1ccc(S(=O)(=O)N(C)C[C@H]2Oc3ccc(NC(=O)Nc4ccc(C(F)(F)F)cc4)cc3C(=O)N([C@H](C)CO)C[C@H]2C)cc1,active,active,inactive
O=C1c2ccccc2-c2c(-c3ccccc3)nc3ccccc3c21,inactive,inactive,inactive
Cc1nn(C)c(COc2ccc(N3CCN(S(=O)(=O)N(C)C)CC3)cc2)c1-c1cccc2c(CCCOc3cccc4ccccc34)c(C(=O)O)n(CCN3CCNCC3)c12,inactive,inactive,inactive
C[C@@H]1CN([C@H](C)CO)C(=O)c2cc(NS(=O)(=O)c3cn(C)cn3)ccc2O[C@H]1CN(C)Cc1ccc(C(=O)Nc2ccccc2N)cc1,inactive,inactive,inactive
CCCCN(C/C=C/c1ccccc1OC)Cc1ccccc1,inactive,inactive,inactive
COCC(=O)Nc1ccc2c(c1)C(=O)N(C)C[C@H](OC)[C@@H](C)CN(C(=O)Cc1cccnc1)[C@H](C)CO2,inactive,inactive,inactive
C[C@H](O)C#Cc1ccc2c(c1)O[C@@H](CN(C)C(=O)Cc1ccccn1)[C@H](C)CN([C@@H](C)CO)S2(=O)=O,inactive,inactive,inactive
C[C@@H]1CN([C@@H](C)CO)C(=O)c2cccc(NC(=O)Nc3cccc4ccccc34)c2O[C@H]1CN(C)S(=O)(=O)c1ccc(F)cc1,inactive,inactive,inactive
C[C@@H]1CN([C@H](C)CO)C(=O)c2cc(NC(=O)C3CC3)ccc2O[C@@H]1CN(C)S(=O)(=O)c1cccs1,inactive,inactive,inactive
COc1ccc2c(c1)c(CC(=O)O)c(C)n2C(=O)c1ccc(Cl)cc1,inactive,inactive,inactive
C[C@@H]1CCCCO[C@H](CN(C)Cc2ccc3c(c2)OCO3)[C@@H](C)CN([C@@H](C)CO)C(=O)c2cc(NS(=O)(=O)c3ccc(Cl)cc3)ccc2O1,inactive,inactive,inactive
CCC(=O)N1C[C@]2(C1)CN([C@@H](CO)c1c2c2ccc(cc2n1C)OC)C(=O)CN1CCOCC1,inactive,inactive,inactive
C[C@@H]1CCCCO[C@@H](CN(C)Cc2ccc(Cl)c(Cl)c2)[C@@H](C)CN([C@@H](C)CO)C(=O)c2cc(NS(=O)(=O)c3cccs3)ccc2O1,inactive,active,inactive
COc1oc(C(=O)NC2CCCCC2)c(-c2ccc(Cl)cc2)c1S(=O)(=O)c1ccccc1Cl,inactive,inactive,inactive
C[C@H]1CCCCO[C@H](CN(C)C(=O)c2ccncc2)[C@@H](C)CN([C@@H](C)CO)C(=O)c2cc(NS(=O)(=O)c3cn(C)cn3)ccc2O1,inactive,inactive,inactive
Cc1ccc(OCc2ccc(Cl)cc2)c(C(C)(C)C)c1,inactive,inactive,inactive
C[C@H]1CN([C@@H](C)CO)C(=O)c2cccc(NC(=O)Nc3ccc(F)cc3)c2O[C@@H]1CN(C)S(C)(=O)=O,inactive,inactive,inactive
Cc1ccc(S(=O)(=O)Nc2ccc3c(c2)C(=O)N([C@H](C)CO)C[C@H](C)[C@@H](CN(C)Cc2ccc(C(=O)O)cc2)OCCCC[C@@H](C)O3)cc1,inactive,inactive,inactive
C[C@H](CO)N1C[C@H](C)[C@@H](CN(C)C(=O)c2ccncc2)OCCCC[C@H](C)Oc2ccc(NC(=O)NC3CCCCC3)cc2C1=O,inactive,inactive,inactive
COc1ccc2c3c(n(c2c1)C)[C@@H](CO)N(C[C@]13CCN(CC1)C(=O)c1ccccc1)C(=O)Nc1ccccc1F,inactive,inactive,inactive
Cc1cc(C(=O)Nc2cccc3c2O[C@H](CN(C)S(=O)(=O)c2cccs2)[C@@H](C)CN([C@@H](C)CO)C3=O)n(C)n1,inactive,inactive,inactive
C[C@H]1CN([C@@H](C)CO)C(=O)c2cc(C#CC3CCCCC3)cnc2O[C@@H]1CN(C)C(=O)Cc1ccccn1,inactive,inactive,inactive
Cc1noc(C)c1S(=O)(=O)Nc1ccc2c(c1)CC(=O)N([C@@H](C)CO)C[C@H](C)[C@H](CN(C)Cc1ccc(-c3ccccc3)cc1)O2,inactive,inactive,inactive
